# Measurements taken from the supplement of paper PMC10037445.
# Over roughly 2,900 compounds, “NF-kB SEAP reporter activity, fold change vs agonist alone” has its median near 0.99; the highest 2% begin near 2.6. Some of the results follow.
# Key:
# RAW-Dual [1] = assay: NF-kB SEAP reporter activity, fold change vs agonist alone; cytotoxicity flag (confluency mask): not cytotoxic; higher = enhanced NF-kB activity
# How it was run: (§1)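 RAW-Dual macrophages (50,000 cells/well in DMEM, 384-well plates) received 50 nL of library stock by pin tool, then a PRR agonist 1 h later, and were kept at 37 °C, 5% CO2. After 20 hours, supernatant was read for IRF by QuantiLuc luminescence and for NF-κB by QuantiBlue absorbance at 620 nm. Reporter activity is fold change over agonist-alone wells. Cytotoxic wells had IncuCyte confluency below 70% of agonist controls in both mask sets.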
# RAW-Dual [2] = assay: NF-kB SEAP reporter activity, fold change vs agonist alone; higher = enhanced NF-kB activity
# How it was run: as §1
# RAW-Dual [3] = assay: NF-kB SEAP reporter activity, fold change vs agonist alone; cytotoxicity flag (confluency mask): cytotoxic (confluency <70% of control); higher = enhanced NF-kB activity
# How it was run: as §1
# [4] = agonist: ODN 1826 (TLR9) 0.5 ug/mL
# [5] = agonist: Pam2CSK4 (TLR2/6) 0.1 ug/mL
# [6] = agonist: Pam3CSK4 (TLR2/1) 0.1 ug/mL
# [7] = library stock concentration (final ~1000-fold dilution): 10 mM, cytotoxicity flag (confluency mask): not cytotoxic, agonist: Imiquimod (TLR7) […]
# [8] = library stock concentration (final ~1000-fold dilution): 10 mM, cytotoxicity flag (confluency mask): not cytotoxic, agonist: MPLA (TLR4) […]
# [9] = library stock concentration (final ~1000-fold dilution): 10 mM, cytotoxicity flag (confluency mask): cytotoxic (confluency <70% of control), agonist: Imiquimod (TLR7) […]
# [10] = library stock concentration (final ~1000-fold dilution): 10 mM, cytotoxicity flag (confluency mask): cytotoxic (confluency <70% of control), agonist: MPLA (TLR4) […]
structure (smiles),measurement,setting,value
CC1(C(=O)O)CCC2(C)CCC3(C)C(=CC(=O)C4C5(C)CCC(OC6OC(C(=O)O)C(O)C(O)C6OC6OC(C(=O)O)C(O)C(O)C6O)C(C)(C)C5CCC43C)C2C1.N.N (stereo not drawn) (library stock concentration (final ~1000-fold dilution): 10 mM),NF-kB SEAP reporter activity,RAW-Dual [1]; agonist: LPS (TLR4) 0.1 ug/mL,0.96
same,NF-kB SEAP reporter activity,RAW-Dual [1]; [4],0.88
same,NF-kB SEAP reporter activity,RAW-Dual [1]; [5],0.866
same,NF-kB SEAP reporter activity,RAW-Dual [1]; [6],1.15
CC1(C(=O)O)CCC2(C)CCC3(C)C(=CC(=O)C4C5(C)CCC(OC6OC(C(=O)O)C(O)C(O)C6OC6OC(C(=O)O)C(O)C(O)C6O)C(C)(C)C5CCC43C)C2C1.N.N (stereo not drawn),NF-kB SEAP reporter activity,RAW-Dual [2]; [7],0.926
same,NF-kB SEAP reporter activity,RAW-Dual [2]; [8],1.03
CNS(=O)(=O)Nc1nccc(Cc2c(C)c3ccc(Oc4ncccn4)cc3oc2=O)c1F,NF-kB SEAP reporter activity,RAW-Dual [2]; [7],0.168
same,NF-kB SEAP reporter activity,RAW-Dual [2]; [8],0.289
CNS(=O)(=O)Nc1nccc(Cc2c(C)c3ccc(Oc4ncccn4)cc3oc2=O)c1F (library stock concentration (final ~1000-fold dilution): 10 mM),NF-kB SEAP reporter activity,RAW-Dual [1]; agonist: LPS (TLR4) 0.1 ug/mL,0.195
same,NF-kB SEAP reporter activity,RAW-Dual [1]; [4],0.407
same,NF-kB SEAP reporter activity,RAW-Dual [1]; [5],0.0713
same,NF-kB SEAP reporter activity,RAW-Dual [1]; [6],0.134
Cl.OC1CCC(Nc2ncc3nc(Nc4c(F)cc(F)cc4F)n(C4CCOC4)c3n2)CC1 (stereo not drawn) (library stock concentration (final ~1000-fold dilution): 10 mM),NF-kB SEAP reporter activity,RAW-Dual [1]; agonist: LPS (TLR4) 0.1 ug/mL,0.387
same,NF-kB SEAP reporter activity,RAW-Dual [1]; [4],0.417
same,NF-kB SEAP reporter activity,RAW-Dual [1]; [5],0.129
same,NF-kB SEAP reporter activity,RAW-Dual [1]; [6],0.218
Cl.OC1CCC(Nc2ncc3nc(Nc4c(F)cc(F)cc4F)n(C4CCOC4)c3n2)CC1 (stereo not drawn),NF-kB SEAP reporter activity,RAW-Dual [2]; [7],0.575
same,NF-kB SEAP reporter activity,RAW-Dual [2]; [8],0.452
CC(C)(C)OC(=O)NC1CCCCC/C=C\C2CC2(C(=O)NS(=O)(=O)C2CC2)NC(=O)C2CC(OC(=O)N3Cc4cccc(F)c4C3)CN2C1=O (stereo not drawn) (library stock concentration (final ~1000-fold dilution): 10 mM),NF-kB SEAP reporter activity,RAW-Dual [1]; agonist: LPS (TLR4) 0.1 ug/mL,1.01
same,NF-kB SEAP reporter activity,RAW-Dual [1]; [4],0.995
same,NF-kB SEAP reporter activity,RAW-Dual [1]; [5],0.808
same,NF-kB SEAP reporter activity,RAW-Dual [1]; [6],1.03
CC(C)(C)OC(=O)NC1CCCCC/C=C\C2CC2(C(=O)NS(=O)(=O)C2CC2)NC(=O)C2CC(OC(=O)N3Cc4cccc(F)c4C3)CN2C1=O (stereo not drawn),NF-kB SEAP reporter activity,RAW-Dual [2]; [7],0.902
same,NF-kB SEAP reporter activity,RAW-Dual [2]; [8],1.01
CNc1nc(-c2ccc3c(N)n[nH]c3c2)cc(N2CC(C(=O)NC3CCCCC3)CCC2C)n1 (stereo not drawn),NF-kB SEAP reporter activity,RAW-Dual [2]; [7],0.991
same,NF-kB SEAP reporter activity,RAW-Dual [2]; [8],1.06
CNc1nc(-c2ccc3c(N)n[nH]c3c2)cc(N2CC(C(=O)NC3CCCCC3)CCC2C)n1 (stereo not drawn) (library stock concentration (final ~1000-fold dilution): 10 mM),NF-kB SEAP reporter activity,RAW-Dual [1]; agonist: LPS (TLR4) 0.1 ug/mL,1.27
same,NF-kB SEAP reporter activity,RAW-Dual [1]; [4],0.182
same,NF-kB SEAP reporter activity,RAW-Dual [1]; [5],0.58
same,NF-kB SEAP reporter activity,RAW-Dual [1]; [6],0.488
CC1CNC(=O)c2cnn3ccc(nc23)NC(C)c2cc(F)ccc2O1 (stereo not drawn) (library stock concentration (final ~1000-fold dilution): 10 mM),NF-kB SEAP reporter activity,RAW-Dual [1]; agonist: LPS (TLR4) 0.1 ug/mL,1.58
same,NF-kB SEAP reporter activity,RAW-Dual [1]; [4],0.9
same,NF-kB SEAP reporter activity,RAW-Dual [1]; [5],0.5
same,NF-kB SEAP reporter activity,RAW-Dual [1]; [6],0.422
CC1CNC(=O)c2cnn3ccc(nc23)NC(C)c2cc(F)ccc2O1 (stereo not drawn),NF-kB SEAP reporter activity,RAW-Dual [2]; [7],0.753
same,NF-kB SEAP reporter activity,RAW-Dual [2]; [8],0.916
Nc1nccc(Oc2ccc3c(C(=O)Nc4cccc(C(F)(F)F)c4)cccc3c2)n1,NF-kB SEAP reporter activity,RAW-Dual [2]; [7],0.327
same,NF-kB SEAP reporter activity,RAW-Dual [2]; [8],0.375
Nc1nccc(Oc2ccc3c(C(=O)Nc4cccc(C(F)(F)F)c4)cccc3c2)n1 (library stock concentration (final ~1000-fold dilution): 10 mM),NF-kB SEAP reporter activity,RAW-Dual [1]; agonist: LPS (TLR4) 0.1 ug/mL,0.325
same,NF-kB SEAP reporter activity,RAW-Dual [1]; [4],0.326
same,NF-kB SEAP reporter activity,RAW-Dual [1]; [5],0.132
same,NF-kB SEAP reporter activity,RAW-Dual [1]; [6],0.178
CN1CCN(c2cccc(Nc3nc4c(-c5ccc(S(C)(=O)=O)cc5)cccn4n3)c2)CC1 (library stock concentration (final ~1000-fold dilution): 10 mM),NF-kB SEAP reporter activity,RAW-Dual [1]; agonist: LPS (TLR4) 0.1 ug/mL,0.349
same,NF-kB SEAP reporter activity,RAW-Dual [1]; [4],0.193
same,NF-kB SEAP reporter activity,RAW-Dual [1]; [5],0.152
same,NF-kB SEAP reporter activity,RAW-Dual [1]; [6],0.234
CN1CCN(c2cccc(Nc3nc4c(-c5ccc(S(C)(=O)=O)cc5)cccn4n3)c2)CC1,NF-kB SEAP reporter activity,RAW-Dual [2]; [7],0.514
same,NF-kB SEAP reporter activity,RAW-Dual [2]; [8],0.729
O=C(/C=C/c1ccc2ccc(C(F)(F)F)cc2n1)c1ccncc1,NF-kB SEAP reporter activity,RAW-Dual [2]; [9],0.59
same,NF-kB SEAP reporter activity,RAW-Dual [2]; [10],0.757
O=C(/C=C/c1ccc2ccc(C(F)(F)F)cc2n1)c1ccncc1 (library stock concentration (final ~1000-fold dilution): 10 mM),NF-kB SEAP reporter activity,RAW-Dual [3]; agonist: LPS (TLR4) 0.1 ug/mL,0.521
same,NF-kB SEAP reporter activity,RAW-Dual [3]; [4],0.532
same,NF-kB SEAP reporter activity,RAW-Dual [3]; [5],0.35
same,NF-kB SEAP reporter activity,RAW-Dual [3]; [6],0.304
Oc1ccc(O)cc1,NF-kB SEAP reporter activity,RAW-Dual [2]; [7],2.01
same,NF-kB SEAP reporter activity,RAW-Dual [2]; [8],0.442
Oc1ccc(O)cc1 (library stock concentration (final ~1000-fold dilution): 10 mM),NF-kB SEAP reporter activity,RAW-Dual [1]; agonist: LPS (TLR4) 0.1 ug/mL,0.383
same,NF-kB SEAP reporter activity,RAW-Dual [1]; [4],0.983
same,NF-kB SEAP reporter activity,RAW-Dual [1]; [5],0.936
same,NF-kB SEAP reporter activity,RAW-Dual [1]; [6],0.297
CNC(=O)c1nn(C)c2c1C(C)(C)Cc1cnc(Nc3ccc(N4CCN(C)CC4)cc3)nc1-2,NF-kB SEAP reporter activity,RAW-Dual [2]; [9],2.16
same,NF-kB SEAP reporter activity,RAW-Dual [2]; [10],0.678
CNC(=O)c1nn(C)c2c1C(C)(C)Cc1cnc(Nc3ccc(N4CCN(C)CC4)cc3)nc1-2 (library stock concentration (final ~1000-fold dilution): 10 mM),NF-kB SEAP reporter activity,RAW-Dual [3]; agonist: LPS (TLR4) 0.1 ug/mL,0.229
same,NF-kB SEAP reporter activity,RAW-Dual [3]; [4],1.12
same,NF-kB SEAP reporter activity,RAW-Dual [3]; [5],0.0958
same,NF-kB SEAP reporter activity,RAW-Dual [3]; [6],0.185
COC1=CC(=O)CC(C)C12Oc1c(Cl)c(OC)cc(OC)c1C2=O (stereo not drawn),NF-kB SEAP reporter activity,RAW-Dual [2]; [7],0.909
same,NF-kB SEAP reporter activity,RAW-Dual [2]; [8],0.842
COC1=CC(=O)CC(C)C12Oc1c(Cl)c(OC)cc(OC)c1C2=O (stereo not drawn) (library stock concentration (final ~1000-fold dilution): 10 mM),NF-kB SEAP reporter activity,RAW-Dual [1]; agonist: LPS (TLR4) 0.1 ug/mL,0.897
same,NF-kB SEAP reporter activity,RAW-Dual [1]; [4],0.816
same,NF-kB SEAP reporter activity,RAW-Dual [1]; [5],0.787
same,NF-kB SEAP reporter activity,RAW-Dual [1]; [6],0.943
COc1ccc(C=Cc2cc(OC)c(OC)c(OC)c2)cc1OP(=O)(O)O,NF-kB SEAP reporter activity,"RAW-Dual [2]; library stock concentration (final ~1000-fold dilution): 10 mM water, cytotoxicity flag (confluency mask): cytotoxic (confluency <70% of control), agonist: Imiquimod (TLR7) […]",1.67
same,NF-kB SEAP reporter activity,"RAW-Dual [2]; library stock concentration (final ~1000-fold dilution): 10 mM water, cytotoxicity flag (confluency mask): cytotoxic (confluency <70% of control), agonist: MPLA (TLR4) […]",2.09
COc1ccc(C=Cc2cc(OC)c(OC)c(OC)c2)cc1OP(=O)(O)O (library stock concentration (final ~1000-fold dilution): 10 mM water),NF-kB SEAP reporter activity,RAW-Dual [3]; agonist: LPS (TLR4) 0.1 ug/mL,5.99
same,NF-kB SEAP reporter activity,RAW-Dual [3]; [4],2.48
same,NF-kB SEAP reporter activity,RAW-Dual [3]; [5],2.34
same,NF-kB SEAP reporter activity,RAW-Dual [3]; [6],2.65
